Consider 41 molecules from the supplement of paper PMC9446081.

Structures are written as SMILES. In all, about 39,000 compounds went through this assay and about 220 (0.56%) showed activity. The list shows a part of the results.
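Also: static incubation at 37 °C against the wild-type strain, values averaged over two biological replicates.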

The test system of this experiment is Escherichia coli K-12 BW25113. The experiment is described as follows: relative growth (OD600 normalised to plate interquartile mean) (fraction); higher = less growth inhibition, active = 0.2 or less. Particulars: 50 µM; LB; incubation time: overnight (16-24 h).
For `NCC[C@H]1CC[C@H](NC(=O)C2CCCCC2)[C@@H](CO)O1`, the relative growth was inactive: 0.988.

For the molecule `CC(=O)N1[C@@H]2Cn3c(ccc(-c4ccccc4)c3=O)[C@H]1[C@@H](C(=O)N1CCN(C)CC1)[C@@H]2CO`, the relative growth is inactive: 0.999.

Consider `C[C@@H]1CN([C@H](C)CO)C(=O)c2cc(C#CC(C)(C)O)cnc2O[C@@H]1CN(C)C(=O)CN(C)C`, for which the relative growth is inactive: 1.01.

Take `O=C(N/N=C/c1ccc(B(O)O)cc1)c1ccccn1`: the relative growth is inactive: 0.981.

As for `CC(C)NC(=O)N(C)C[C@@H]1Oc2ccc(NC(=O)CCC(F)(F)F)cc2C(=O)N([C@H](C)CO)C[C@H]1C`, the relative growth is inactive: 0.992.

On to `C[C@@H]1CN([C@H](C)CO)C(=O)c2cc(NS(=O)(=O)c3ccccc3)ccc2O[C@@H](C)CCCCO[C@@H]1CN(C)CC1CCCCC1`, for which the relative growth is inactive: 0.961.

As to `CCCC(=O)O`, the relative growth was inactive: 1.02.

For the molecule `O=C1CN2CCN3CCN([C@@H](CO)[C@@H](O)CO)CCN(CC2)CC(=O)[O][Gd]([O]1)[O]C(=O)C3`, the relative growth is inactive: 0.988.

In the case of `C[C@@H]1CN([C@H](C)CO)C(=O)Cc2cc(NS(=O)(=O)c3cccs3)ccc2O[C@H]1CN(C)S(C)(=O)=O`, the relative growth is inactive: 1.

Take `C[C@@H]1CN([C@H](C)CO)C(=O)c2cccc(NC(=O)Nc3ccc(C(F)(F)F)cc3)c2O[C@@H]1CN(C)Cc1ccc(Oc2ccccc2)cc1`: the relative growth is inactive: 1.06.

In the case of `CN(C)[C@H]1CS(=O)(=O)C[C@@H]1N(C)C`, the relative growth is inactive: 1.05.

For the molecule `C[C@H]1CN([C@@H](C)CO)C(=O)c2cccc(NS(=O)(=O)c3ccc(Cl)cc3)c2O[C@H]1CN(C)Cc1ccc(Cl)c(Cl)c1`, the relative growth is inactive: 0.991.

On to `C[C@H](CO)N1C[C@H](C)[C@@H](CN(C)Cc2ccc(C(F)(F)F)cc2)OCCCC[C@H](C)Oc2ccc(NC(=O)CCC(F)(F)F)cc2C1=O`, for which the relative growth was inactive: 1.

With `C[C@@H]1CN([C@@H](C)CO)C(=O)c2cc(NS(=O)(=O)c3ccc(F)cc3)ccc2O[C@@H]1CN(C)Cc1ccc(Cl)c(Cl)c1`, the relative growth was inactive: 0.987.

Consider `O=C(C[C@H]1C[C@H]2c3cc(NC(=O)Nc4ccc(C(F)(F)F)cc4)ccc3O[C@H]2[C@H](CO)O1)NCc1cc(F)ccc1F`, for which the relative growth is inactive: 1.

As for `COCC#Cc1cnc2c(c1)C(=O)N([C@@H](C)CO)C[C@@H](C)[C@H](CN(C)C(C)=O)O2`, the relative growth was inactive: 0.976.

In the case of `CN1C(=O)c2cc(NS(=O)(=O)c3cccc(F)c3)ccc2OC[C@H]2O[C@H](CC(=O)NCCN3CCCCC3)CC[C@@H]21`, the relative growth is inactive: 0.978.

With `C[C@H](CO)N1C[C@H](C)[C@@H](CN(C)Cc2ccc(C(F)(F)F)cc2)OCCCC[C@H](C)Oc2ccc(NC(=O)NC3CCCCC3)cc2C1=O`, the relative growth was inactive: 1.01.

Turning to `O=C[C@H](O)[C@@H](O)[C@H](O)[C@H](O)CO`, the relative growth is inactive: 0.98.

Consider `OCC1OC(OC2C(CO)OC(O)(CO)C2O)C(O)C(O)C1O` (stereo unspecified), for which the relative growth is inactive: 1.03.

For `C[C@H](CO)N1C[C@H](C)[C@H](CN(C)C(=O)CCC(F)(F)F)OCCCC[C@H](C)Oc2ccc(NS(=O)(=O)c3ccc(F)cc3)cc2C1=O`, the relative growth was inactive: 1.03.

With `C[C@H](CO)N1C[C@H](C)[C@@H](CN(C)S(=O)(=O)c2ccc(F)cc2)Oc2ccc(NS(=O)(=O)c3ccc(F)cc3)cc2C1=O`, the relative growth is inactive: 1.01.

As for `CCCC#Cc1ccc2c(c1)O[C@H](CN(C)S(=O)(=O)c1cccc(F)c1)[C@H](C)CN([C@H](C)CO)S2(=O)=O`, the relative growth is inactive: 1.01.

On to `CO[C@@H]1CN(C)C(=O)c2ccc(NS(C)(=O)=O)cc2OC[C@H](C)N(C(=O)c2ccc3c(c2)OCO3)C[C@H]1C`, for which the relative growth is inactive: 0.972.

Take `CC(C)NC(=O)N(C)C[C@@H]1Oc2c(NC(=O)Nc3ccc4c(c3)OCO4)cccc2C(=O)N([C@@H](C)CO)C[C@H]1C`: the relative growth was inactive: 0.991.

In the case of `O=C1C=C2CC3(O)COc4c(ccc(O)c4O)C3=C2C=C1O` (stereo unspecified), the relative growth was inactive: 1.1.

Turning to `COc1ccc(CN(C)C[C@H]2OCCCC[C@@H](C)Oc3ccc(NS(=O)(=O)c4ccc(OC)cc4)cc3C(=O)N([C@@H](C)CO)C[C@H]2C)cc1`, the relative growth is inactive: 1.

Turning to `COc1ccc(C[C@@H](N)C(=O)N[C@@H]2[C@@H](O)[C@@H](n3cnc4c(N(C)C)ncnc43)O[C@@H]2CO)cc1`, the relative growth was inactive: 0.467.

Consider `CCOC(=O)/C=C1\SC(=O)NC1=O`, for which the relative growth was inactive: 1.

`COc1ccc(S(=O)(=O)N(C)C[C@@H]2OCCCC[C@@H](C)Oc3ccc(NC(=O)Nc4ccc5c(c4)OCO5)cc3C(=O)N([C@@H](C)CO)C[C@@H]2C)cc1`: the relative growth is inactive: 1.04.

Take `CC(C)NC(=O)Nc1ccc2c(c1)CC(=O)N([C@@H](C)CO)C[C@@H](C)[C@H](CN(C)S(=O)(=O)c1cccs1)O2`: the relative growth is inactive: 1.02.

On to `CNC[C@H]1OCCCC[C@@H](C)Oc2ccc(NC(=O)Nc3cccc4ccccc34)cc2C(=O)N([C@@H](C)CO)C[C@H]1C`, for which the relative growth is inactive: 0.999.

Consider `C[C@@H]1CCCCO[C@@H](CN(C)C(=O)Cc2ccccc2)[C@@H](C)CN([C@@H](C)CO)C(=O)c2cc(NC(=O)NC3CCCCC3)ccc2O1`, for which the relative growth was inactive: 1.01.

With `CCS(=O)(=O)N1C[C@]2(C1)CN([C@@H](CO)c1[nH]c3cc(ccc3c12)OC)S(=O)(=O)c1cn(cn1)C`, the relative growth was inactive: 0.981.

`Cl.N[C@H](Cc1ccccc1)C(=O)O`: the relative growth was inactive: 0.886.

Consider `Cc1ccc(S(=O)(=O)N(C)C[C@@H]2Oc3ccc(NS(=O)(=O)c4cccs4)cc3CC(=O)N([C@H](C)CO)C[C@H]2C)cc1`, for which the relative growth is inactive: 1.

Consider `C[C@@H]1CN([C@H](C)CO)S(=O)(=O)c2ccc(C#C[C@@H](C)O)cc2O[C@@H]1CN(C)C(=O)CN(C)C`, for which the relative growth is inactive: 0.999.

Regarding `C[C@@H]1CN([C@@H](C)CO)C(=O)c2cc(NC(=O)Nc3ccc(C(F)(F)F)cc3)ccc2O[C@@H](C)CCCCO[C@@H]1CN(C)S(=O)(=O)c1cccs1`, the relative growth was inactive: 1.04.

With `O=C(O)[C@@H](O)c1ccccc1`, the relative growth is inactive: 0.971.

Take `O=C(CN1CCOCC1)NCC[C@@H]1CC[C@@H](NC(=O)c2ccc3c(c2)OCO3)[C@@H](CO)O1`: the relative growth is inactive: 0.997.

In the case of `C[C@@H]1CCCCO[C@H](CN(C)S(C)(=O)=O)[C@@H](C)CN([C@@H](C)CO)C(=O)c2cc(NC(=O)CCCN(C)C)ccc2O1`, the relative growth was inactive: 1.01.
